The text below walks through data of patent publication US8536307B2, “Anticalins” (Pieris AG, priority 1997, dated 2013).

The assay addresses biotinylated synthetic hepatitis C-peptide epitope, peptide fragment no. 59 from the surface protein NS4 of HCV (SEQ ID NO:13) (Hepatitis C virus genotype 1a, UniProt P27958). The assay is described as follows: Sandwich-ELISA for detection of hepatitis C peptide epitope. Conditions: periplasmic protein extract, ligand 1 μM, absorption at 405 nm as dA/dt.

B1: Bbp: Recombinant bilin-binding protein from Pieris brassicae (modified, encoded on pBBP21/pBBP22), produced as a control (protein)
chain: DVYHDGACPEVKPVDNFDWSQYHGKWWEVAKYPNSVEKYGKCGWAEYTPEGKSVKVSNYHVIHGKEYFIEGTAYPVGDSKIGKIYHSLTYGGVTKENVFNVLSTDNKNYIIGYYCKYDEDKKGHQDFVWVLSRSMVLTGEAKTAVENYLIGSPVVDSQKLVYSDFSEAACKVNNLAEAKVLANRELDKYGVSDYYKNLINNAKTVEGVKALIDEILAALP
modifications: left off: small tags and cut ends
As for B1, the “binding signal in sandwich-ELISA” value was “only low signals were detectable”.
